Source: PubChem BioAssay AID651820 (National Center for Advancing Translational Sciences (NCATS), 2012)
About 12,000 (3.5%) of roughly 340,000 compounds were called active. Inconclusive results, whose numbers are uncertain, are shown with a selection of clear calls. The call rests on the fitted dose curve; in most records, active means well fitted inhibition curve with a large enough effect; inconclusive means small, poorly fitted or top-dose-only effect, or another doubt; inactive means no such curve, though single readings can be large or run the other way. Potencies of inconclusive entries are left out as doubtful fits. A structure can be active in one record and inactive in another.

assay: qHTS Assay for Inhibitors of Hepatitis C Virus (HCV); conditions: Huh7.5.1 HCVcc-Cre (HCVcc is cell-culture hepatitis C virus) infection, luciferase reporter, 44 h; series mostly up to 41.8 µM
Method in brief: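 Luciferase read-out (15 sec integration) after a 15 min room-temperature substrate step quantifies HCVcc-Cre infection. Cells, 1,000 per well, had compound added 4 h post-plating, then virus at ~0.5 moi, and were cultured 44 h.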
Potency means the concentration at half of the fitted maximal effect; tags describe the fitted curve by direction and shape.

| Structure (SMILES) | Potency |
| --- | --- |
| C=CCn1c(SCc2nc3ccccc3[nH]2)nnc1-c1cccc(OC)c1 | inconclusive [inhibitor, single point] |
| CCN(CC)c1ccc(/C=C2\C(=O)NC(=S)N(C)C2=O)o1 | inactive |
| Nc1ccn([C@@H]2O[C@H](CO)[C@@H](O)[C@H]2O)c(=O)n1 | inactive |
| Cc1ccc(OCC(=O)N/N=C\c2ccncc2)c(C)c1 | inconclusive [inhibitor, single point] |
| COc1ccc(C(=O)Cn2c(C(=O)/C=C/c3ccccc3)nc3ccccc32)cc1 | inconclusive [inhibitor, single point] |
| CCn1c(SCC(=O)N2CCN(S(=O)(=O)c3ccccc3)CC2)nnc1-c1cccs1 | inconclusive [inhibitor, single point] |
| Cc1ccc2cc(C(c3nnnn3Cc3ccccc3)N3CCc4ccccc43)c(=O)[nH]c2c1 (stereo not given) | inconclusive [inhibitor, single point] |
| CCN(Cc1ccc(OC)c(COC)c1)CC1CCCN(CCc2cccc(F)c2)C1 (stereo not given) | active: 12.6 µM |
| CCCc1sc(N)nc1-c1ccc(Cl)cc1 | inconclusive [inhibitor, partial curve, poor fit] |
| COc1cc(C(=O)NC(=S)Nc2ccc(Cl)cn2)cc(OC)c1OC | inactive |
| CCOC(=O)C1=CN2CCC[C@H]2CC1=O | inconclusive [inhibitor, single point] |
| Cc1ccc(-n2nc3c(=O)n(C(C)C(=O)NCc4ccc5c(c4)OCO5)nc(C)c3c2C)cc1 (stereo not given) | active: 11.2 µM |
| CCOc1ccc(-c2nc(C#N)c(N3CCCCCC3)o2)cc1 | inconclusive [inhibitor, partial curve] |
| CCCCC(=O)Nc1nc2c(OC)ccc(OC)c2s1 | inconclusive [inhibitor, single point] |
| COc1ccc(-n2cc(CN(C)CCO)c(-c3cccc(F)c3)n2)cc1 | inactive |
| CN(c1cccc(NC(=O)Nc2ccc(Cl)cc2)c1)S(C)(=O)=O | active: 10 µM |
| O=C1N=C(N2CCOCC2)S/C1=C\c1ccccc1OS(=O)(=O)c1ccccc1 | inactive |
| O=C(N/N=C/c1ccc([N+](=O)[O-])o1)C(O)c1ccccc1 (stereo not given) | inconclusive [inhibitor, single point] |
| COc1ccc(Cl)cc1NC1=NCC(C)S1 (stereo not given) | active: 11.2 µM |
| CN(C)S(=O)(=O)c1cccc(NC(=O)COC(=O)/C=C/c2ccco2)c1 | inactive |
| COc1ccccc1C(CNC(=O)c1ccc(OCc2c(C)noc2C)cc1)N1CCCC1 (stereo not given) | inconclusive [inhibitor, single point] |
| COc1cccc(-c2nn(-c3ccc(C)cc3)cc2C(=O)N2CCc3cc(OC)c(OC)cc3C2)c1 | inconclusive [inhibitor, partial curve] |
| Cc1cccc(NS(=O)(=O)c2cc(C(=O)OC(C)C(=O)NCc3ccc4c(c3)OCO4)ccc2C)c1 (stereo not given) | inconclusive [inhibitor, partial curve] |
| CCOc1ccc(-c2nc(C#N)c(N3CCN(CC)CC3)o2)cc1 | inconclusive [inhibitor, single point] |

| Structure (SMILES) | Potency |
| --- | --- |
| CCCCCCn1ccc(=N)cc1 | active: 0.794 µM |
| COc1ccc(C(=O)NCC(c2ccco2)N2CCCCC2)cc1S(=O)(=O)Nc1ccc(C)cc1 (stereo not given) | inconclusive [inhibitor, partial curve] |
| CCS(=O)(=O)N1CCN(c2ccccc2F)CC1 | inactive |
| O=C(CSc1ccc(Cl)cc1)N1CCN(c2c(Cl)cccc2[N+](=O)[O-])CC1 | inconclusive [inhibitor, single point] |
| CCc1ccc(N2C(=O)C(Cl)=C(Nc3ccc(C(=O)N4CCCC4)cc3)C2=O)cc1 | inconclusive [inhibitor, single point] |
| C[C@H](CO)N1C[C@H](C)[C@@H](CN(C)C)Oc2c(NS(=O)(=O)c3cn(C)cn3)cccc2C1=O | inactive |
| COC(=O)CC1C(=O)NC2CCCCC2N1C(=O)CCl (stereo not given) | inconclusive [inhibitor, single point] |
| Clc1ccc(Cn2cnc3ccccc32)cc1 | inconclusive [inhibitor, single point] |
| CC(=O)Nc1nc2c(s1)C(=O)NCCC2 | inactive |
| Cc1cc(OCC(=O)Nc2ccncc2)ccc1Cl | inconclusive [inhibitor, single point] |
| COc1ccc(-c2c(C#CC(C)(C)O)c3ccccc3n2C)cc1 | inconclusive [inhibitor, single point] |
| COc1ccc(C(=O)C(C)Oc2cccc(NC(=O)c3cccc([N+](=O)[O-])c3)c2)cc1 (stereo not given) | active: 11.2 µM |
| CCOC(=O)Cc1csc(NC(=O)NC2(C(F)(F)F)Oc3ccc(Cl)cc3O2)n1 (stereo not given) | inconclusive [inhibitor, partial curve, poor fit] |
| Cc1noc(C)c1CSc1nc2ccccc2[nH]1 | inactive |
| CC(C)C(=O)Nc1sc2c(c1-c1nc3ccccc3[nH]1)CCCC2 | inconclusive [inhibitor, full curve, poor fit] |
| O=C(COc1ccc(S(=O)(=O)N2CCCC2)cc1)NCc1ccco1 | inactive |
| CN(C)C(=O)CSc1ccc(S(=O)(=O)N2CCCC2)cn1 | inconclusive [inhibitor, partial curve, poor fit] |
| Cc1[nH]c2ccccc2c1/C=N/NC(=O)C1CC1(c1ccccc1)c1ccccc1 (stereo not given) | inconclusive [inhibitor, single point] |
| Cc1c(C(=O)N2CCC3(CC2)OCCO3)sc2ncnc(N(C)c3ccccc3)c12 | inconclusive [inhibitor, single point] |
| CCOC(=O)c1[nH]c(C)c(C(=O)Nc2ccc(C)c(F)c2)c1C | inconclusive [inhibitor, full curve] |
| COc1ccc(C(=O)NC(=S)NNC(=O)c2ccccc2C)cc1 | inconclusive [inhibitor, partial curve, poor fit] |
| COc1ccc(N2CCN(C(=O)c3oc4ccccc4c3C)CC2)cc1 | inconclusive [inhibitor, single point] |
| O=C1CN(C(=O)COC(=O)C2CCN(S(=O)(=O)c3ccccc3C(F)(F)F)CC2)c2ccccc2N1 | inactive |
| CN1CCN(c2ccc(Cl)cc2NS(=O)(=O)c2ccccc2Cl)CC1 | inconclusive [inhibitor, single point] |

| Structure (SMILES) | Potency |
| --- | --- |
| COc1ccc(C(=O)/C=C\c2ccc(NC(=O)c3cccs3)cc2)cc1 | inconclusive [inhibitor, partial curve] |
| Cc1cccc(C(=O)N2CCCCCC2)c1[N+](=O)[O-] | inactive |
| Cc1ccc(-c2n[nH]c(=O)c3ccccc23)cc1S(=O)(=O)NCCO | inconclusive [inhibitor, single point] |
| COc1ccc(S(=O)(=O)N2CCC(C(=O)N[C@H](C(=O)N3CCCC3)C(C)C)CC2)cc1 | inactive |
| Brc1ccc(-c2csc(N3CCc4ccccc4C3)n2)cc1 | inconclusive [inhibitor, partial curve] |
| CSc1nc(Cl)c(Cc2ccc(OC(C)C)cc2)c(N2CCOCC2)n1 | inconclusive [inhibitor, single point] |
| N#Cc1c(NC(=O)C2C3C=CC(C3)C2C(=O)O)sc2c1CCCCC2 (stereo not given) | inconclusive [inhibitor, single point] |
| C#CCOCCOCCOCCNc1nc(N2CCN(C(=O)[C@H]([C@@H](C)CC)n3cc([C@@H](N)Cc4ccc(O)cc4)nn3)CC2)nc(N2CCN(C(=O)[C@H](CCCCN)n3cc([C@@H](N)C(C)CC)nn3)CC2)n1 (stereo not given in full) | inactive |
| CCCCCCC#Cc1cncc(C(=O)NNC(=O)Nc2cc(Cl)cc(Cl)c2)c1 | inactive |
| Cc1cccc(Nc2nc(-c3ccncc3)cs2)c1 | inconclusive [inhibitor, single point] |
| CN(C)S(=O)(=O)c1ccc(Cl)c(NC(=O)CN2CCC(Cc3ccccc3)CC2)c1 | inconclusive [inhibitor, single point] |
| O=S(=O)(c1ccccc1)N1CCN(CC(O)COc2ccc3c(c2)CCC3)CC1 (stereo not given) | inconclusive [inhibitor, single point] |
| Oc1ccccc1C1SC(c2ccccc2O)SC(c2ccccc2O)S1 (stereo not given) | inconclusive [inhibitor, single point] |
| CCO[C@H]1OC(C(=O)N2CCN(C)CC2)=C[C@@H](C)[C@@H]1CCCO | inactive |
| COc1ccccc1-c1noc(CCCC(=O)NC2CCCCC2)n1 | inactive |
| CC(C)OC(=O)c1c(NC(=O)c2cccs2)sc2c1CCCC2 | inconclusive [inhibitor, full curve, poor fit] |
| COc1ccccc1C(=O)NCCN1CCN(C(=O)c2ccccc2OC)CC1 | inconclusive [inhibitor, partial curve, poor fit] |
| O=C(/C=C/c1ccc(Cl)cc1Cl)Nc1cccc(S(=O)(=O)NC2=NCCCCC2)c1 | inconclusive [inhibitor, single point] |
| CCOC(=O)C(=Cc1cc(=O)c(OC)co1)C(=O)OCC | active: 10 µM |
| CN(C)CCC(c1ccccc1)c1ccccn1 (stereo not given) | active: 5.01 µM |
| C=C(C)CNC(=S)N1CCN(C(c2ccccc2)c2ccccc2)CC1 | inactive |
| Cc1c(Cl)c([N+](=O)[O-])nn1CC(=O)NCc1ccc(Cl)cc1 | inactive |
